Source: US7517874B2 (priority 2007, dated 2009)

Molecular target: human CB2 receptor (hCB2) (Homo sapiens, UniProt P34972)
Assay: cell-based
Type: cell-based
Conditions: for +/− HCB2: agonist or inverse agonist at hCB2
[1] = groups >100 nM-10 μM and >10 μM, cAMP, CHO-K1 hCB2, read-out: EC50 HCB2

Chain of human CB2 receptor (hCB2) (P34972 whole entry): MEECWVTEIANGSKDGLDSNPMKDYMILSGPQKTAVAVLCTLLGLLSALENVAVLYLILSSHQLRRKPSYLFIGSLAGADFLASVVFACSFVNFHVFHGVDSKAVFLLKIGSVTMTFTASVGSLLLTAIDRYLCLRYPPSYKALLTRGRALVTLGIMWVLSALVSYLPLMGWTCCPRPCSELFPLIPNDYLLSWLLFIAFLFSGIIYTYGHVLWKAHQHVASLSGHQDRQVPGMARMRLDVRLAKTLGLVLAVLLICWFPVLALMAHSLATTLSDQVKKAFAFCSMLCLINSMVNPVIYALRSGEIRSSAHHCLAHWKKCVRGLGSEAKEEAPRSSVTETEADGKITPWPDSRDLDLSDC

Row | Structure (SMILES) | +/− HCB2 | other results
1 | CC(C)(C)CC(=O)c1nc(-c2ccccc2)n2c1CNCC2 [Compound 291, 3,3-dimethyl-1-(3-phenyl-5,6,7,8-tetrahydroimidazo[1,5-a]pyrazin-1-yl)butan-1-one 2,2,2-trifluoroacetate] |  | EC50: > 10000 nM
2 | CCN1CCn2c(-c3ccccc3)nc(C(=O)NCC3CCOCC3)c2C1 [Compound 168, 7-ethyl-3-phenyl-N-((tetrahydro-2H-pyran-4-yl)methyl)-5,6,7,8-tetrahydroimidazo[1,5-a]pyrazine-1-carboxamide] | + | 
3 | CN1CCCn2c(-c3ccc(Cl)cc3F)nc(C(=O)N[C@@H](CC(C)(C)C)C(N)=O)c2C1 [Compound 584, (S)-N-(1-amino-4,4-dimethyl-1-oxopentan-2-yl)-3-(4-chloro-2-fluorophenyl)-8-methyl-6,7,8,9-tetrahydro-5H-imidazo[1,5-a][1,4]diazepine-1-carboxamide] | + | 
4 | CC(C)(C)[C@H](CO)NC(=O)c1nc(-c2ccccc2)n2c1CNCC2 [Compound 23, (R)-N-(1-hydroxy-3,3-dimethylbutan-2-yl)-3-phenyl-5,6,7,8-tetrahydroimidazo[1,5-a]pyrazine-1-carboxamide] | + | 
5 | CNC(=O)[C@@H](NC(=O)c1nc(-c2ccc(C)cc2F)n2c1CN(C)CC2)C(C)(C)C [Compound 249, (S)-N-(3,3-dimethyl-1-(methylamino)-1-oxobutan-2-yl)-3-(2-fluoro-4-methylphenyl)-7-methyl-5,6,7,8-tetrahydroimidazo[1,5-a]pyrazine-1-carboxamide] | + | 
6 | CNC(=O)[C@@H](NC(=O)c1nc(-c2ccccc2)n2c1CN(S(=O)(=O)c1ccccc1[N+](=O)[O-])CC2)C(C)(C)C [Compound 97, (S)-N-(3,3-dimethyl-1-(methylamino)-1-oxobutan-2-yl)-7-(2-nitrophenylsulfonyl)-3-phenyl-5,6,7,8-tetrahydroimidazo[1,5-a]pyrazine-1-carboxamide] | − | 
7 | CNC(=O)[C@@H](NC(=O)c1nc(-c2ccc(C)o2)n2c1CN(C)CCC2)C(C)(C)C [Compound 443, (S)-N-(3,3-dimethyl-1-(methylamino)-1-oxobutan-2-yl)-8-methyl-3-(5-methylfuran-2-yl)-6,7,8,9-tetrahydro-5H-imidazo[1,5-a][1,4]diazepine-1-carboxamide] |  | EC50: > 10000 nM
8 | CC(C)C[C@H](NC(=O)c1nc(-c2cc(Cl)c(F)cc2F)n2c1CN(C)CCC2)C(N)=O [Compound 571, (S)-N-(1-amino-4-methyl-1-oxopentan-2-yl)-3-(5-chloro-2,4-difluorophenyl)-8-methyl-6,7,8,9-tetrahydro-5H-imidazo[1,5-a][1,4]diazepine-1-carboxamide] | + | 
9 | CNC(=O)[C@@H](NC(=O)c1nc(-c2ccccc2)n2c1CN(C(=O)c1ccco1)CC2)C(C)(C)C [Compound 128, (S)-N-(3,3-dimethyl-1-(methylamino)-1-oxobutan-2-yl)-7-(furan-2-carbonyl)-3-phenyl-5,6,7,8-tetrahydroimidazo[1,5-a]pyrazine-1-carboxamide] | − | 
10 | CN1CCCn2c(-c3ccccc3)nc(C(=O)N[C@H](C(=O)N(C)C)C(C)(C)C)c2C1 [Compound 557, (S)-N-(1-(dimethylamino)-3,3-dimethyl-1-oxobutan-2-yl)-8-methyl-3-phenyl-6,7,8,9-tetrahydro-5H-imidazo[1,5-a][1,4]diazepine-1-carboxamide] | + | 
11 | COC(=O)N1CCn2c(-c3ccccc3)nc(C(=O)Nc3ccccc3)c2C1 [Compound 181, methyl 3-phenyl-1-(phenylcarbamoyl)-5,6-dihydroimidazo[1,5-a]pyrazine-7(8H)-carboxylate] |  | EC50 [1]: > 10000 nM
12 | CNC(=O)[C@@H](NC(=O)c1nc(C2=CCN(C(=O)OC(C)(C)C)CC2)n2c1CN(C)CCC2)C(C)(C)C [Compound 388, (S)-tert-butyl 4-(1-(3,3-dimethyl-1-(methylamino)-1-oxobutan-2-ylcarbamoyl)-8-methyl-6,7,8,9-tetrahydro-5H-imidazo[1,5-a][1,4]diazepin-3-yl)-5,6-dihydropyridine-1(2H)-carboxylate] |  | EC50: > 10000 nM
13 | CNC(=O)[C@@H](NC(=O)c1nc(-c2cc(Cl)c(F)cc2F)n2c1CN(C)CCC2)C(C)(C)C [Compound 370, (S)-3-(5-chloro-2,4-difluorophenyl)-N-(3,3-dimethyl-1-(methylamino)-1-oxobutan-2-yl)-8-methyl-6,7,8,9-tetrahydro-5H-imidazo[1,5-a][1,4]diazepine-1-carboxamide] | + | 
14 | CNC(=O)[C@@H](NC(=O)c1nc(CCCC2CCCC2)n2c1CN(C)CCC2)C(C)(C)C [Compound 494, (S)-3-(3-cyclopentylpropyl)-N-(3,3-dimethyl-1-(methylamino)-1-oxobutan-2-yl)-8-methyl-6,7,8,9-tetrahydro-5H-imidazo[1,5-a][1,4]diazepine-1-carboxamide] | + | 
15 | CN1CCCn2c(-c3ccc(F)c(Cl)c3)nc(C(=O)N[C@H](C(N)=O)C(C)(C)C)c2C1 [Compound 576, (S)-N-(1-amino-3,3-dimethyl-1-oxobutan-2-yl)-3-(3-chloro-4-fluorophenyl)-8-methyl-6,7,8,9-tetrahydro-5H-imidazo[1,5-a][1,4]diazepine-1-carboxamide] | + | 
16 | CNC(=O)c1ccc(NC(=O)c2nc(-c3ccc(Cl)cc3F)n3c2CN(C)CC3)cc1 [Compound 218] |  | EC50 [1]: > 10000 nM
17 | CC(C)(C)C(=O)N1CCn2c(-c3ccccc3)nc(C(=O)NC3CCCCC3)c2C1 [Compound 137, N-cyclohexyl-3-phenyl-7-pivaloyl-5,6,7,8-tetrahydroimidazo[1,5-a]pyrazine-1-carboxamide] |  | EC50 [1]: > 10000 nM
18 | CNC(=O)[C@H](CC(C)C)NC(=O)c1nc(C2CCCCC2)n2c1CN(C)CCC2 [Compound 540, (S)-3-cyclohexyl-8-methyl-N-(4-methyl1-1-(methylamino)-1-oxopentan-2-yl)-6,7,8,9-tetrahydro-5H-imidazo[1,5-a][1,4]diazepine-1-carboxamide] | + | 
19 | CNC(=O)[C@@H](NC(=O)c1nc(-c2ccc(F)c(C#N)c2)n2c1CN(C)CCC2)C(C)(C)C [Compound 425, (S)-3-(3-cyano-4-fluorophenyl)-N-(3,3-dimethyl-1-(methylamino)-1-oxobutan-2-yl)-8-methyl-6,7,8,9-tetrahydro-5H-imidazo[1,5-a][1,4]diazepine-1-carboxamide] | + | 
20 | Cc1nnc([C@@H](NC(=O)c2nc(-c3ccccc3)n3c2CN(CC(C)C)CC3)C(C)(C)C)o1 [Compound 202, (S)-N-(2,2-dimethyl-1-(5-methyl-1,3,4-oxadiazol-2-yl)propyl)-7-isobutyl-3-phenyl-5,6,7,8-tetrahydroimidazo[1,5-a]pyrazine-1-carboxamide] | + | 
21 | C[C@H](NC(=O)c1nc(-c2ccccc2)n2c1CN(CCO)CC2)c1ccccc1 [Compound 146, (S)-7-(2-hydroxyethyl)-3-phenyl-N-(1-phenylethyl)-5,6,7,8-tetrahydroimidazo[1,5-a]pyrazine-1-carboxamide] |  | EC50: > 10000 nM
22 | C[C@H](NC(=O)c1nc(-c2ccccc2)n2c1CN(C)CC2)C(C)(C)C [Compound 51, (S)-N-(3,3-dimethylbutan-2-yl)-7-methyl-3-phenyl-5,6,7,8-tetrahydroimidazo[1,5-a]pyrazine-1-carboxamide] | + | 
23 | CNC(=O)[C@@H](NC(=O)c1nc(-c2ccccc2)n2c1CNCCC2)C(C)(C)O [Compound 606, (S)-N-(3-hydroxy-3-methyl-1-(methylamino)-1-oxobutan-2-yl)-3-phenyl-6,7,8,9-tetrahydro-5H-imidazo[1,5-a][1,4]diazepine-1-carboxamide] |  | EC50: > 10000 nM
24 | CNC(=O)[C@@H](NC(=O)c1nc(-c2cccc(F)c2F)n2c1CN(C)CCC2)C(C)(C)C [Compound 369, (S)-3-(2,3-difluorophenyl)-N-(3,3-dimethyl-1-(methylamino)-1-oxobutan-2-yl)-8-methyl-6,7,8,9-tetrahydro-5H-imidazo[1,5-a][1,4]diazepine-1-carboxamide] | + | 
25 | CNC(=O)[C@@H](NC(=O)c1nc(-c2cccc(C(F)(F)F)c2)n2c1CN(C)CCC2)C(C)(C)C [Compound 438, (S)-N-(3,3-dimethyl-1-(methylamino)-1-oxobutan-2-yl)-8-methyl-3-(3-(trifluoromethyl)phenyl)-6,7,8,9-tetrahydro-5H-imidazo[1,5-a][1,4]diazepine-1-carboxamide] | + | 
26 | CC(C)(C)OC(=O)N1CCn2c(-c3ccc(Cl)cc3)nc(C(=O)N[C@H](CO)C(C)(C)C)c2C1 [Compound 34, (S)-tert-butyl 3-(4-chlorophenyl)-1-(1-hydroxy-3,3-dimethylbutan-2-ylcarbamoyl)-5,6-dihydroimidazo[1,5-a]pyrazine-7(8H)-carboxylate] | − | 
27 | CNC(=O)[C@@H](NC(=O)c1nc(-c2cccc(C#N)c2)n2c1CN(C)CCC2)C(C)(C)C [Compound 328, (S)-3-(3-cyanophenyl)-N-(3,3-dimethyl-1-(methylamino)-1-oxobutan-2-yl)-8-methyl-6,7,8,9-tetrahydro-5H-imidazo[1,5-a][1,4]diazepine-1-carboxamide] | + | 
28 | CC(C)CN1CCn2c(-c3ccccc3)nc(C(=O)NC3C4(C)CCC(C4)C3(C)C)c2C1 (stereo not drawn) [Compound 142, 7-isobutyl-3-phenyl-N-(1,3,3-trimethylbicyclo[2.2.1]heptan-2-yl)-5,6,7,8-tetrahydroimidazo[1,5-a]pyrazine-1-carboxamide] | + | 
29 | CCN1CCn2c(-c3ccccc3)nc(C(=O)Nc3ccccc3)c2C1 [Compound 152, 7-ethyl-N,3-diphenyl-5,6,7,8-tetrahydroimidazo[1,5-a]pyrazine-1-carboxamide] |  | EC50: > 10000 nM
30 | CNC(=O)[C@H](CC(C)(C)C)NC(=O)c1nc(-c2ccc(C(F)(F)F)cc2F)n2c1CN(C)CCC2 [Compound 551, (S)-N-(4,4-dimethyl-1-(methylamino)-1-oxopentan-2-yl)-3-(2-fluoro-4-(trifluoromethyl)phenyl)-8-methyl-6,7,8,9-tetrahydro-5H-imidazo[1,5-a][1,4]diazepine-1-carboxamide] | + | 

Where two headings read alike, the source gives them in different places.
